Screen size: about 46,000 compounds; about 60 (0.1%) were called active. Another 3% or so got no clear call; they are omitted. Calls come from the whole dose curve; as a rule, active = well fitted inhibition curve with a large enough effect; inconclusive = small, poorly fitted or top-dose-only effect; inactive = no such curve, though single readings can be large or run the other way. This is one part of the list.
Test: Primary qHTS assay for Inhibitors of ovarian cancer metastasis using an organotypic tumor microenvironment (TME) model.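 For Potency: count of GFP cancer cells still attached after washing and fixation.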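 For activity change, negative = inhibition: plate controls were DMSO wells for no effect and tomatine positive control wells for full effect.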 Note: nearly all actives have a fitted effect of over 65% in size.
Details: SKOV3ip1-GFP adhesion/invasion on 3D omental model, fluorescence; series mostly up to 45.8 µM; activity change, negative = inhibition: at the top concentration
Outline: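 Primary human omental fibroblast/mesothelial 3D culture pre-formed 48 h. SKOV3ip1-GFP cells added with compounds (0.36-46 umol/L), incubated 2 h RT/16 h 37 C, fixed; GFP cells quantified at 488/509 nm.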
Potency is the fitted concentration of half-maximal effect.

Structure (SMILES)	activity change, negative = inhibition	outcome	Potency
Cc1ccc(NC(=O)CN2C(=O)c3ccccc3Sc3ccc(C(=O)N4CCOCC4)cc32)cc1F	inactive: -32.7%	–	–
Cc1cccc(NC(=O)Cn2nnc(-c3nc(-c4ccncc4)no3)c2N)c1	inactive: 9.32%	–	–
Cc1ccc(C(c2sc3nc(-c4ccco4)nn3c2O)N2CCCC2)cc1 (stereo not given)	inactive: 1.08%	–	–
Cc1ccc(N(CC(=O)NCCc2ccc(Cl)cc2)S(=O)(=O)c2c(C)noc2C)cc1	inactive: 4.61%	–	–
COc1cc(SC)ccc1C(=O)Nc1ccc(S(=O)(=O)Nc2nccc(C)n2)cc1	inactive: 6.52%	–	–
COc1cccc(N2CCN(C(=O)c3ccc(C)c(NC(=O)c4nsc5ccccc45)c3)CC2)c1	inactive: 2.76%	–	–
CCN(CC)CCNC(=O)C1CCN(C(=O)c2cnn(-c3ccccc3)c2-n2cccc2)CC1	inactive: 3.28%	–	–
O=C(NCc1ccccc1)C1CCN(S(=O)(=O)Cc2ccccc2)CC1	inactive: 7.69%	–	–
Cc1ccc(-n2c(SCc3ccccc3F)nc3[nH]ncc3c2=O)cc1Cl	inactive: 4.74%	–	–
CNC[C@@H](O)[C@@H](O)[C@H](O)[C@H](O)CO	inactive: 16.1%	–	–
CC(=O)NCCNC(=O)CCCn1c(=O)[nH]c2ccsc2c1=O	inactive: 21.5%	–	–
CCCCOc1ccc(C2c3c(oc4ccc(C)cc4c3=O)C(=O)N2CCCN(C)C)cc1OCC (stereo not given)	inactive: 4.09%	–	–
Cc1ccc2nc(NC(=O)CSc3[nH]c(=O)ncc3C)sc2c1	inactive: 20.9%	–	–
Cc1ccc(NC(=O)CSc2nc(=O)cc(N)n2-c2ccccc2)cc1	inactive: 3.41%	–	–
CC(=O)c1ccc(NC(=O)c2cc(C)nn2-c2ccccc2)cc1	–	inactive	–
COCCN(CCOC)S(=O)(=O)c1ccc(C(=O)Nc2sc3c(c2C(=O)OC)CCN(C)C3)cc1	inactive: -9.92%	–	–
CCOC(=O)c1c(NC(=O)Cc2coc3cc(C)cc(C)c23)sc2c1CCC2	inactive: 2.02%	–	–
Cc1ccc(-n2c(/C=C/c3c(C)n(C)c4ccccc34)nc3ccccc3c2=O)cc1	inactive: 5%	–	–
Cc1ccc(C)c(NS(=O)(=O)c2cc3c(cc2C)n(C)c(=O)c(=O)n3C)c1	inactive: 6.79%	–	–
CCN(CC)S(=O)(=O)c1cccc(C(=O)Nc2ccccc2C(=O)Nc2ccc(Cl)cc2)c1	inactive: 2.52%	–	–
Cc1ccc(S(=O)(=O)N2CCC(N3CCN(Cc4ccccc4)C(=O)C3=O)CC2)cc1C	–	inactive	–
CCCN1CCN(CCCNC(=O)c2cc3c(=O)n(CC)c4ccccc4c3s2)CC1	inactive: -15.3%	–	–
Cc1cccc(-n2c(C)cc(C(=O)C(=O)Nc3ccccc3F)c2C)c1C	inactive: 5.24%	–	–
O=c1[nH]c(SCc2c(F)cccc2Cl)nc2c1CCC2	inactive: -2.45%	–	–

Structure (SMILES)	activity change, negative = inhibition	outcome	Potency
CN(C)S(=O)(=O)N(CC(=O)NCCSCc1c(F)cccc1Cl)c1ccccc1	–	inactive	–
CCOC(=O)c1ccccc1NC(=O)c1sc2nc3n(c(=O)c2c1C)CCCCC3	inactive: -1.94%	–	–
COC(=O)c1c(NC(C)=O)c2c3c(sc2n1Cc1cc(C)ccc1C)CCCC3	inactive: -5.49%	–	–
Cc1ccc(NC(=O)c2cc(S(=O)(=O)N3CCC4(CC3)OCCO4)ccc2F)cc1Cl	–	inactive	–
CCOc1cccc(C(=O)Nc2ccc(-c3nc4ncccc4o3)cc2C)c1	inactive: -13.9%	–	–
Clc1ccc2c(N3CCN(CCCN4CCN(c5ccnc6cc(Cl)ccc56)CC4)CC3)ccnc2c1	inactive: -4.02% [at 23.2 µM]	–	–
COc1cccc(NC(=O)c2cccc3c(=O)c4c([nH]c23)CCCC4)c1	inactive: 1.97%	–	–
CCOc1ccc(-c2cccc(NS(=O)(=O)c3ccc(F)cc3F)c2)nn1	inactive: -6.85%	–	–
COc1ccc(-c2noc(CNC(=O)c3ccccc3Br)n2)cc1	–	inactive	–
COc1ccc(C(=O)c2oc3ccccc3c2NC(=O)c2cc(=O)c3ccc(C)cc3o2)cc1Cl	inactive: -2.41%	–	–
Cc1cccc(C(=O)Nc2nnc(S(=O)(=O)N(C)Cc3ccccc3)s2)c1	inactive: 20.2%	–	–
Cc1ccc(S(=O)(=O)CC(=O)Nc2nc3c(C)cc(C)cc3s2)cc1	–	inactive	–
O=S(=O)(c1cccc(Cl)c1)c1nnn2c1nc(NCc1ccc3c(c1)OCO3)c1sccc12	inactive: -3.22%	–	–
COc1ccc(-c2nc3c(c(SCC(=O)N4CCCCC4)n2)Cc2cc(C)ccc2O3)cc1	–	inactive	–
Cc1ccc(S(=O)(=O)NCC(c2ccco2)N2CCOCC2)cc1 (stereo not given)	inactive: 1.36%	–	–
CCOc1ccc(OCC)c(NC(=O)c2cc(S(=O)(=O)N3CCc4ccccc43)cn2C)c1	–	inactive	–
CC(=O)c1c(C)c2cnc(Nc3ccc(N4CCNCC4)cn3)nc2n(C2CCCC2)c1=O	inactive: 17.6%	–	–
CCOc1ccc2ncc3c(-c4ccc(C)cc4)nn(-c4cccc(F)c4)c3c2c1	inactive: 129%	–	–
CCN1C[C@H](C)n2c(c(O)c3c(=O)n(Cc4ccc(F)c(Cl)c4)nc(C(=O)NC)c32)C1=O	inactive: 7.67%	–	–
Cc1ccc(C)c(N2CCN(C(=O)Cn3cnc4onc(-c5ccc(F)cc5)c4c3=O)CC2)c1	inactive: -5.85%	–	–
CC(=O)c1ccc(N2CCN(S(=O)(=O)c3cc4[nH]c(=O)c(=O)[nH]c4cc3C)CC2)cc1	inactive: 1.28%	–	–
COc1ccccc1CNC(=O)C(=O)NCC(c1cccs1)S(=O)(=O)c1ccccc1 (stereo not given)	inactive: 1.57%	–	–
CCc1nnc(NC(=O)c2cc(=O)c3cc(C)ccc3o2)s1	inactive: -4.34%	–	–
CC(=O)Nc1ccc(/C=C/c2noc(-c3ccccc3O)n2)cc1	–	inactive	–

Structure (SMILES)	activity change, negative = inhibition	outcome	Potency
CCOC(=O)CSc1nc(-c2ccc(OCC)cc2)cc(C(F)(F)F)c1C#N	inactive: 2.86%	–	–
Cc1ccc2oc(=O)c3cc(C(=O)NCCCOC(C)C)sc3c2c1	–	inactive	–
COc1cccc(NC(=O)C(Cc2ccccc2)N2Cc3ccccc3C2=O)c1 (stereo not given)	inactive: -4.93%	–	–
COc1ccc(-n2nnnc2C2CCN(S(=O)(=O)c3cccc(C(F)(F)F)c3)CC2)cc1	–	inactive	–
Cc1ccc(NC(=O)CCCc2nc(-c3ccco3)no2)cc1Cl	–	inactive	–
COc1ccc(-n2c(SCC(=O)NCc3ccc(Cl)cc3)nc3ccsc3c2=O)cc1	–	inactive	–
COc1cccc(-n2c(=O)c3cc(OC)c(OC)cc3n(CC(=O)Nc3ccc(F)cc3)c2=O)c1	inactive: 1.07%	–	–
CC(C)CCOc1ccc(C(=O)NCC2OCCc3ccccc32)cc1 (stereo not given)	inactive: 0.796%	–	–
COc1ccc(-c2noc(CCC(=O)N(C)c3cc(Cl)ccc3OC)n2)cc1	inactive: 5.14%	–	–
COc1ccc(NS(=O)(=O)c2ccc(N3CCCCS3(=O)=O)cc2)cc1Cl	inactive: 11%	–	–
CCOc1ccc(C(=O)N(Cc2ccc(C(C)C)cc2)Cc2ccco2)cc1	–	inactive	–
CCOc1ccc(Nc2ncnc3c2c(-c2ccccc2)cn3-c2cccc(C)c2)cc1	inactive: -7.13%	–	–
Clc1ccc(-c2nnn3c2nc(NC2CCCCC2)c2ccccc23)cc1	–	inactive	–
CCCc1cnc2c(c1SCC(=O)Nc1ccccc1OCC)c(=O)n(C)c(=O)n2C	inactive: -1.98%	–	–
CCC(=O)N1CCc2cc(Br)cc(S(=O)(=O)CCC(=O)Nc3cccc(Cl)c3)c21	inactive: 19.6%	–	–
CCCn1c2ccc(F)cc2c2nnc(SCCN3CCCCC3)nc21	inactive: -11.9%	–	–
CCS(=O)(=O)N1CCCc2cc(C(=O)Nc3cccc(C(C)=O)c3)ccc21	inactive: 0.532%	–	–
COc1cc(NC(=O)c2cccc(Cl)c2Cl)ccc1NC(=O)c1cc2ccccc2o1	inactive: 7.52%	–	–
CCCSCCCNC(=O)c1ccc(C)c(NC(=O)c2nsc3ccccc23)c1	inactive: 0.355%	–	–
COc1cccc(Cn2nc(SC)c(S(=O)(=O)c3ccccc3)c2N(C(C)=O)C(C)=O)c1	–	inactive	–
Cc1cc2c(cc1NS(=O)(=O)c1ccc(Br)cc1)n(C)c(=O)c(=O)n2C	inactive: -5.29%	–	–
Cn1nc(-c2ccccc2F)c2cc(C(=O)NCc3ccccc3Cl)sc21	inactive: -4.08%	–	–
COc1ccc(N2CCN(S(=O)(=O)c3ccc(F)c(C(=O)Nc4ccccc4Cl)c3)CC2)cc1	inactive: -9.8%	–	–
COc1cc2c(cc1OC)C(c1cccc(Cl)c1)CC(=O)N2 (stereo not given)	inactive: -15.9%	–	–

Structure (SMILES)	activity change, negative = inhibition	outcome	Potency
COc1ccc(OC)c(NC(=O)c2oc(=O)c3ccccc3c2-c2ccccc2)c1	inactive: -8.26%	–	–
COc1ccc(CC(=O)N2CCc3cc(OC)c(OC)cc3C2COc2ccc(F)cc2)cc1 (stereo not given)	–	inactive	–
CC(C)(C)OC(=O)N1CCC(c2c(C(=O)NCc3cccs3)cnn2-c2cccc(F)c2)CC1	–	inactive	–
COc1ccc(Cl)cc1NC(=O)N1CCN(S(=O)(=O)c2ccc3c(ccn3C)c2)CC1	inactive: 14.4%	–	–
CCc1ccc(OCCSc2nc3ccccc3n2CC(=O)N2CCCCC2)cc1	inactive: -8.28%	–	–
O=C(c1ccc(F)cc1)N1CCc2c([nH]c3ccccc23)C1c1ccc(Cl)cc1 (stereo not given)	inactive: 2.72%	–	–
CCOc1ccc2c(c1)c(=O)c(C(=O)c1ccc3c(c1)OCO3)cn2Cc1ccc(F)cc1	inactive: -20.3%	–	–
COc1cc(/C=C(\C#N)c2nc3ccc(C)cc3[nH]2)ccc1OCc1ccc(C)cc1	inactive: 6.07%	–	–
COc1cccc(OC)c1C(=O)NCCc1sc(-c2cccc(F)c2)nc1C	inactive: -0.329%	–	–
COc1ccc(S(=O)(=O)N2CCC(Oc3ccc(-n4cnnn4)cc3)CC2)cc1	inactive: -15.7%	–	–
CCCCNC(=O)c1cccc(NC(=O)c2nsc3ccccc23)c1	inactive: 15.9%	–	–
Cc1nn(-c2nc(-c3ccccc3)cc(C(F)(F)F)n2)c(C)c1Cl	inactive: -12.7%	–	–
CCc1nn(C(CC)C(=O)NCc2ccc(OC)c(OC)c2)c(=O)c2cc3oc(C)cc3n12 (stereo not given)	inactive: -6.56%	–	–
COc1ccccc1N1CCN(c2ncnc3c2c(-c2ccccc2)cn3-c2cccc(Cl)c2)CC1	inactive: -5.11%	–	–
Cc1ccc(OCCSc2nc(-c3ccccc3C)nc3cc(=O)[nH]n23)cc1Cl	inactive: -3.3%	–	–
Cc1ccc(C)c(NC(=O)CSc2nccn2-c2cccc(C)c2C)c1	inactive: 5.77%	–	–
COc1ccc(C(=O)Nc2ccccc2-c2nc3ccccc3s2)cc1OC	–	inactive	–
CCN(C(=O)c1cn(-c2cccc(OC)c2)c(=O)c2ccccc12)c1ccccc1C	inactive: -3.2%	–	–
COc1cccc(CNC(=O)c2cnc3c(-c4ccc(F)cc4)c(C)nn3c2C)c1	–	inactive	–
CC(=O)Nc1ccc(NC(=O)c2nc(S(=O)(=O)Cc3ccc(F)cc3)ncc2Cl)cc1	–	–	active: 3.16 µM
CCc1ccc(C2C(C(=O)Nc3ccccc3OC)=C(C)Nc3c(C(=O)Nc4ccc(C)cc4)cnn32)cc1 (stereo not given)	inactive: -20.5%	–	–
O=C(NCCc1ccccc1)c1cc(Nc2ccccc2)nc2ccccc12	inactive: -4.74%	–	–
Cc1c(-c2cccc3c(CCCOc4cccc5ccccc45)c(C(=O)O)n(Cc4cccnc4)c23)c(COc2ccc(N3CCN([S+](=O)([O-])N(C)C)CC3)cc2)nn1C	inactive: -0.314%	–	–
